# Experimental data published in PubChem BioAssay AID463173 (ICCB-Longwood Screening Facility, Harvard Medical School, 2010).
# Screen size: about 52,000 compounds; about 1,700 (3.3%) were called active. No stated cut-off is given here; in the data, active means survival mostly below about 52% (no sharp cut-off); inactive means mostly above about 56%. This is one part of the list.
# Tested on: Wild type
# Test: S. aureus survival, RN4220 and DeltatarO strains – OD600, teichoic acid synthesis inhibitors, primary screen (AID 463173)
# Settings: S. aureus RN4220 wild type/DeltatarO growth, OD600, 18 h, active compounds read low, screened at 18.75 µg/mL (by protocol)
row,Structure (SMILES),survival
1,CCOc1ccc(-c2cc3c(=O)n(Cc4nc(-c5ccc(OC(C)C)cc5)oc4C)ccn3n2)cc1Cl,inactive: 146%
2,CCCCN(CC)CCCNC(=O)Cn1ncc2c3ccccc3n(Cc3ccccc3F)c2c1=O,inactive: 89%
3,CC(C)(C)c1ccc(C(=O)N2CCC(c3nc(-c4ccc(S(=O)(=O)N5CCCC5)cc4)no3)CC2)cc1,inactive: 82%
4,CCN(CC)CCNC(=O)c1ccc(CSc2nc3ccncc3n2Cc2cccc(F)c2)cc1,inactive: 87%
5,Cc1ccc(-c2n[nH]c3c2C(c2cccc(O)c2)N(c2ccc(C(=O)O)cc2)C3=O)cc1 (stereo not drawn),inactive: 98%
6,COc1ccc(CNC(=O)C2CCCN(C(=O)N3CCOc4ccccc43)C2)cc1 (stereo not drawn),inactive: 110%
7,COc1cc(C2SC[C@H]3C(=O)N(c4ccccc4)C(=O)N23)cc(OC)c1OC (stereo partly drawn),inactive: 72%
8,O=C(Cn1nc(N2CCN(c3ccccc3)CC2)ccc1=O)Nc1ccc(F)cc1F,inactive: 81%
9,C/C=C/C(=O)Nc1nc2ccc(OC)cc2s1,inactive: 111%
10,Cc1ccccc1-c1nc(CN2CCC(C(=O)NCCc3ccccc3)CC2)c(C)o1,inactive: 85%
11,O=C(CCCn1c(=O)c2ccccc2n(CC(=O)Nc2cccc(C(F)(F)F)c2)c1=O)NCc1ccc2c(c1)OCO2,inactive: 108%
12,CCCc1cc(=O)[nH]c2nnc(SCC(=O)Nc3ccc(OC)cc3)n12,inactive: 138%
13,CCCCCc1c(O)c2ccccc2[nH]c1=O,inactive: 110%
14,O=C(Nc1ccccc1C(=O)OCc1cc(=O)n2ccsc2n1)c1ccc(Cl)cc1,inactive: 67%
15,O=C(COCc1cc(-c2ccc(F)cc2)on1)Nc1cccc(Cl)c1Cl,inactive: 64%
16,O=C(NCc1cccn1Cc1ccccc1)Nc1ccc(Br)cc1F,inactive: 87%
17,COc1cccc(N2CCN(c3ncnc4c3c(-c3ccccc3)cn4-c3ccc(C)cc3)CC2)c1,inactive: 125%
18,Cc1ccc(S(=O)(=O)c2nnn3c2nc(NC(C)c2ccccc2)c2sccc23)cc1 (stereo not drawn),inactive: 97%
19,CCOc1ccc(N2CC(NC(=O)c3ccc(S(=O)(=O)N4CCCC4)cc3)CC2=O)cc1 (stereo not drawn),inactive: 68%
20,COc1ccccc1CNC(=O)CCNS(=O)(=O)c1ccc2c(c1)CCCC(=O)N2,inactive: 75%
21,CCN(CC)S(=O)(=O)c1ccc2c(c1)nc(CN(C)C(=O)Nc1ccc(Cl)cc1)n2C,inactive: 81%
22,CCOC(=O)c1c(C)[nH]c(C)c1S(=O)(=O)NCC(=O)NCc1ccc(C)cc1,inactive: 87%

row,Structure (SMILES),survival
1,Cc1ccc(Cl)cc1NC(=O)Nc1nnc(N2CCCC(C)C2)s1 (stereo not drawn),inactive: 88%
2,Cc1ccc(NC(=O)CNC(=O)Cn2c(C)cc3ccccc3c2=O)cc1F,inactive: 61%
3,O=C(Cn1c(=O)n(Cc2ccc(Cl)cc2)c(=O)c2cccnc21)Nc1ccccc1C(F)(F)F,inactive: 78%
4,Cc1ccc([N+](=O)[O-])cc1S(=O)(=O)N1CCn2cccc2C1c1ccccc1F (stereo not drawn),inactive: 71%
5,O=C(NCc1cccn1Cc1ccccc1)Nc1cccc(C(F)(F)F)c1,inactive: 53%
6,CC(C)C(=O)c1cn(CC(=O)NCC2CCCO2)c2ccccc12 (stereo not drawn),inactive: 108%
7,CCOC(=O)c1c(C)c(-c2ccccc2)n(CC(=O)NCc2cccc(OC)c2)c1C,inactive: 90%
8,Cn1c(=O)oc2cc(S(=O)(=O)N3CCC(C(=O)NCc4ccccc4)CC3)ccc21,inactive: 89%
9,Cc1ccc(-n2nc3c(=O)n(CCCC(=O)NCc4ccccc4C)nc(C)c3c2C)cc1,inactive: 128%
10,COCCNC(=O)c1c(-c2ccccc2)c(-c2ccccc2)nn(C)c1=O,inactive: 115%
11,CCOC(=O)c1c(SCC(=O)Nc2nc3ccccc3s2)nc(=O)[nH]c1C,active: 1%
12,CCC(Sc1nnc(C)n2c1cc1sccc12)C(=O)Nc1ccccc1F (stereo not drawn),inactive: 79%
13,Cc1ccc(F)cc1NC(=O)CCc1c(C)nn(-c2ccc(N3CCCC3)nn2)c1C,inactive: 70%
14,Cc1cccc(-c2nc3scc(CCNS(=O)(=O)c4c(C)noc4C)n3n2)c1,inactive: 80%
15,CCCCC(=O)Oc1ccc2oc(-c3ccc(OC)cc3)cc(=O)c2c1,inactive: 69%
16,Cc1cc(=S)[nH]c2ccccc12,inactive: 83%
17,CCOc1cccc(C2c3[nH]c4ccccc4c3CCN2C(=O)c2ccccc2F)c1 (stereo not drawn),inactive: 77%
18,CC(=O)c1ccc(NC(=O)Cn2cnc3nc4c(cc3c2=O)CC(C)CC4)cc1 (stereo not drawn),inactive: 47%
19,CCOc1ccccc1C(=O)Nc1ccc(S(=O)(=O)Nc2onc(C)c2C)cc1,inactive: 77%
20,CCOC(=O)c1cnc2cc(C(F)(F)F)ccc2c1N1CCN(c2cccc(Cl)c2)CC1,inactive: 55%
21,CCOc1cc(CNC(=O)c2ccc(Cn3c(=O)c4cccn4c4cccnc43)cc2)ccc1OC,inactive: 86%
